# Source: the supplement of paper PMC3334620
# The full ranking holds about 33,000 sequences; the median of “E-score (-0.5 to 0.5)” is about -0.035, and the highest 2% start at about 0.35. The list shows a part of the results.
# Target: T1, Pdr3 (UniProt P33200)
# T1 sequence: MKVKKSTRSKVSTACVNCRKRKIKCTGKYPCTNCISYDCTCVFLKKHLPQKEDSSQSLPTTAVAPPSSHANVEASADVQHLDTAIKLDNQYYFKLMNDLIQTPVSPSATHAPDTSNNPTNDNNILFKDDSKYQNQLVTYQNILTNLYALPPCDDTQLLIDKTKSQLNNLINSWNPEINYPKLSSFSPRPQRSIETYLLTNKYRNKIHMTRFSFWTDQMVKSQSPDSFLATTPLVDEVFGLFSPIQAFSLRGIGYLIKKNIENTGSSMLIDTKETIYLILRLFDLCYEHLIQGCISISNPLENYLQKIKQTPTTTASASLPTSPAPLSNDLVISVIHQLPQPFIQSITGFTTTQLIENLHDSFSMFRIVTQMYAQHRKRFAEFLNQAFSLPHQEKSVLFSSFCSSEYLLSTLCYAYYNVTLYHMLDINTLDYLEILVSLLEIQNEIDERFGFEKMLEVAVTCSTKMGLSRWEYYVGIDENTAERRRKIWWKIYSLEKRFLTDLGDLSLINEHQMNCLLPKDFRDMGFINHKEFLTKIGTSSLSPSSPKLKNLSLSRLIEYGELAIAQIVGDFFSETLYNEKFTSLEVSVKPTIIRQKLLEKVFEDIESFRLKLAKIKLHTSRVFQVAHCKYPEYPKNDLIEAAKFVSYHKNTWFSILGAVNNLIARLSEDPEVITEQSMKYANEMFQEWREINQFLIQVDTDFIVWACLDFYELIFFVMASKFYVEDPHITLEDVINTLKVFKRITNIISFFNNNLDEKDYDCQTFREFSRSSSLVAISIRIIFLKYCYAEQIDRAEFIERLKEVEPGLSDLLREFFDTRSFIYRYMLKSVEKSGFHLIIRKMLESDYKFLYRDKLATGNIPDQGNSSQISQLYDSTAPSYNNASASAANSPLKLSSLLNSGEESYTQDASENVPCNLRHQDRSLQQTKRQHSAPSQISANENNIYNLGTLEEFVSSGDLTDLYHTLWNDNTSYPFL
# Assay: PBM E-score (8-mer binding enrichment) (E-score (-0.5 to 0.5)); higher = stronger / more preferred TF binding; most listed sequences are background and not binding sites
# Settings: protein concentration: 200 nM; construct: GST-full length
# Method in brief: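 Yeast transcription factors carrying a GST tag, as full-length proteins or DNA-binding domains, were produced by PURExpress in vitro transcription/translation. About 100-200 nM protein was applied to universal all-10-mer Agilent arrays, double-stranded by primer extension on fresh or once-stripped slides. Bound protein was detected with fluorescent anti-GST, and scans were normalised with masliner. The Universal PBM Analysis Suite gave each ungapped eight-base word, pooled with its reverse complement, an E-score, a modified Wilcoxon-Mann-Whitney statistic.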
row,Sequence,PBM E-score
1,TAGAACTA,-0.145
2,CGGCAATA,0.0855
3,AGCCAGGC,-0.0865
4,CCTACGTA,-0.0731
5,AAATGGCG,0.0503
6,CTGGATCA,-0.163
7,CGAATTCA,0.17
8,AATCTCAT,-0.0242
9,CTAGGGGA,-0.154
10,CAGTCACA,-0.16
11,CCGTCTGC,0.243
12,AGCCAAAT,0.0942
13,AAATGTCG,-0.114
14,TATTACAA,-0.115
15,ACAACGAG,-0.131
16,ATGCGGTA,0.0448
17,TCGTCGCA,0.00149
18,CGGAAAGA,0.428
19,GAGCTGCC,0.146
20,CCAAACTA,0.0387
21,AACGAACT,-0.245
22,GACACTGC,-0.0546
23,CCATAACC,-0.0883
24,CACAATCC,0.0118
25,AAGGAGCA,0.0482

row,Sequence,PBM E-score
1,CTCGACAG,-0.231
2,ACTCACGA,-0.107
3,ATTTTTAG,-0.0807
4,CTGGTGTC,0.00867
5,GTTGTCTA,-0.0319
6,ATCGACAG,0.086
7,CACACAGA,0.0465
8,AGCCTAAG,-0.325
9,TATCGATA,0.0405
10,ACCTGGAT,-0.0897
11,GGAGTAGA,-0.0124
12,ACGCGTAT,0.0393
13,ACTGTCCA,-0.141
14,CCAAGACG,-0.207
15,CTTGTCGA,-0.344
16,AGCTGGTC,-0.142
17,AACCTATA,-0.0565
18,CGTCTAAG,-0.0365
19,AGAGCCAT,-0.117
20,GCCAGTCC,0.151
21,AGACCCCG,0.305
22,CTGCACTC,0.0492
23,CAGTTCCG,0.473
24,AAATTTGG,-0.169
25,ATAAGCGC,-0.0339

row,Sequence,PBM E-score
1,ATGAGTCC,0.0278
2,ACTGTTTC,-0.0908
3,AGCCCGAC,-0.0808
4,ACCTATCT,-0.0766
5,GACCCCTA,-0.308
6,GATCGAGC,0.159
7,CCCACGTC,0.0696
8,GACAAAGC,0.103
9,AATGAGGG,-0.0114
10,CTTGCACA,-0.203
11,CGCGGCAG,0.312
12,CTTTAATA,0.056
13,ACATGCAG,-0.142
14,CTACCGAG,-0.112
15,CTAGTGGC,-0.197
16,AACAGGTA,-0.0621
17,AATAGGCC,-0.0385
18,AGACAAAC,-0.147
19,CGTCGAAC,-0.251
20,CCACCCGG,0.359
21,AACAAACT,-0.0344
22,ACTCAAAG,-0.118
23,CAAACGAA,-0.173
24,AGTGGTCA,-0.0663
25,ATGAGGTC,-0.076

row,Sequence,PBM E-score
1,CCGGATGA,0.316
2,AAGCGTGA,-0.0291
3,AGCAAGCC,-0.0699
4,CCTCGACC,-0.141
5,CTCAGCGA,0.00309
6,CGCATGTC,-0.0251
7,GATACATA,0.101
8,CACGAGAG,-0.169
9,AATGGGAT,0.0112
10,GACCTGAA,0.121
11,CTAATCTC,-0.0806
12,TCAGCTAA,-0.191
13,ACACCAGA,-0.0097
14,AAACGTTA,-0.144
15,CCAAGGGC,-0.204
16,CGGAACCG,0.482
17,CGTAACCA,-0.0722
18,CCTTCCCC,-0.014
19,AATGGACT,-0.158
20,CTGACTGA,-0.205
21,TTTAGAAA,-0.193
22,CGATCTCC,0.174
23,CGGTTTAC,-0.0106
24,AGTCCTGA,-0.159
25,GCTCTATA,-0.195

row,Sequence,PBM E-score
1,CGCGCGAG,0.211
2,AGAACAAA,0.0444
3,CAGCTAGC,-0.123
4,AAAGTGGG,-0.039
5,AATTATAT,0.177
6,CTTAAGAC,-0.108
7,CCGCGTAA,0.121
8,ATGCGCTA,-0.0765
9,TAGTCAAA,-0.249
10,CATTGAGC,-0.0845
11,CGATCTTA,-0.0395
12,CGAAGAGC,0.132
13,ACGGTCCT,-0.277
14,TTACGGAA,0.419
15,GTTAGTCA,-0.127
16,CACGCAAG,-0.0453
17,ACTGCACC,0.0857
18,CGGGGACA,0.191
19,ATGATGGG,-0.173
20,AGTGCCGG,0.314
21,AACCGTGT,0.0441
22,ACGAGACG,-0.0794
23,GTTTGCCA,-0.139
24,AAACCCAT,0.0748
25,CACTAAGC,-0.209

row,Sequence,PBM E-score
1,AGCTTGAT,-0.151
2,ATAGCAAG,0.0243
3,GCGTCAAC,-0.0938
4,AAAATCGA,-0.00634
5,GCGTCTGA,-0.0432
6,AAAATCCG,0.272
7,ATACTATA,0.0783
8,CGATGCGC,0.0922
9,CGTAAAAG,0.00583
10,AACGATAT,0.0545
11,CAACTCAA,0.0122
12,CTGAGGCA,-0.206
13,CGTCACGC,-0.0594
14,AAAACAAA,-0.0167
15,GCATTTAC,-0.22
16,AATAGTTG,0.0675
17,CCCGATCC,0.152
18,CAGAGGTC,-0.03
19,GAGGGCGA,-0.0395
20,CTGATTCC,0.15
21,AAGCACGA,-0.01
22,CACGCCAC,-0.201
23,CGGATTCC,0.454
24,AGGTAACC,-0.102
25,ACACCAAA,-0.00159

row,Sequence,PBM E-score
1,GCTGGAAC,0.0129
2,GCACGTGC,0.0474
3,AAGGCAAG,-0.199
4,AGGAAGTC,-0.162
5,AAGTCAGT,0.0202
6,AGTAATGA,-0.0717
7,CGCGCCTC,0.153
8,GCCCGACC,-0.043
9,AGTAGATA,0.0738
10,CGAGGAGA,-0.166
11,ACAGCGCG,0.0436
12,ATCTGTGC,-0.164
13,AGCCCACC,0.0979
14,GGGAAAAA,0.176
15,ACATTGAT,0.198
16,AGTTGCCC,0.0877
17,GGCATATA,0.102
18,ACCGCTGA,-0.0164
19,AATAAACA,0.0464
20,AGGTGGGA,-0.217
21,GATCATGC,-0.0268
22,CTAGGGTA,-0.217
